Data from PubChem BioAssay (NCATS).
Where “and” joins values, the source holds several entries; their conditions need not be identical. Equal entries are not always repeated. This is one part of the list. The main result of the screen is listed elsewhere. These columns were measured beside it and carry no call. Compounds called inactive in the main read-out are mostly missing here. Potencies come from curve fits of mixed quality, noted in brackets.

Assay: qHTS Assay for Lipid Storage Modulators (AID 1519)
Conditions: Drosophila S3 cells, BODIPY lipid droplet/cell ratio, laser cytometry, cells loaded with oleic acid
Text: NIH Molecular Libraries Probe Production Centers Network [MLPCN]
NIH Chemical Genomics Center [NCGC]
Assay Submitter (PI): Beller, Mathias; Max-Planck-Institut fur Biophysikalische Chemie
NCGC Assay Overview: Storing lipids as a reservoir for energy or the anabolism of elementary metabolites is a common feature of probably all cells and is conserved from bacteria to humans. The universal cellular lipid storage organelle is the so-called lipid storage droplet (LD). Although ubiquitous, LDs share a simple structure composed of a hydrophobic core that harbors the storage lipids, which is shielded by a droplet-specific phospholipid monolayer to which proteins are attached. The current model of LD biogenesis involves an incorporation of the lipid core into the membrane leaflets of the endoplasmic reticulum (ER) followed by a subsequent budding-like maturation of a LD, which ultimately pinches off. Once released, LD volume can increase by localized lipogenesis or fusion of existing droplets. Storage lipids are re-mobilized enzymatically by lipase activity. Lipase regulation in the adipocyte is heavily studied and involves multiple components including catecholamine signaling, the LD-associated proteins Perilipin and comparative gene identification-58 (CGI-58) and at least two lipases named hormone sensitive lipase (HSL) and adipocyte triglyceride lipase (ATGL). LD regulation outside of the adipocyte is poorly understood and only few components are known. However, there is an urgent need to learn more about ectopic fat depots as mislocalized storage of lipids, for example in the liver or muscle, is an eminent health problem associated with insulin resistance or the metabolic syndrome. We developed a laser-scanning cytometer assay to enable 1,536-well screening and combined the results of the small molecules screen with an RNAi database based on lipid storage.
NCGC Assay Protocol Summary:
We dispensed 4 uL of cells at 1.25 x 10^6 cells/mL into LoBase Aurora COC 1,536-well plates (black walled, clear bottom) with a bottle-valve solenoid-based dispenser (Aurora) to obtain 5,000 cells/well. Triacsin C (Sigma-Aldrich T-4540), an inhibitor of long-chain fatty acyl CoA synthetase that blocks synthesis of triglycerides, was used as a positive control for lipid under-storage. A total of 23 nL of compound solution of different concentrations were transferred to the assay plates using a Kalypsys pin tool equipped with a 1,536-pin array containing 10-nL slotted pins (FP1S10, 0.457-mm diameter, 50.8 mm long; V&P Scientific). One microliter of oleic acid (400 uM) was added, and the plate was lidded with stainless steel rubber gasket lined lids containing pinholes. […] Fluorescence was detected by excitation of the fluorophores with a 488-nm laser on an Acumen Explorer (TTP Lab Tech). The total intensity in channel 1 (500-530 nm) reflected lipid droplet accumulation. […] The ratio of the total intensity in PMT channel 1 over total intensity of channel 3 was also calculated. Percent activity was computed relative to an internal control (100% inhibited lipid droplet deposition due to the presence of 20 uM Triacsin C), which was added to 32 wells/plate.

[1] = measured here: cell count channel max response
[2] = measured here: cell number channel AC50
[3] = measured here: lipid (BODIPY) channel AC50
[4] = measured here: lipid channel max response
Tags give direction and shape of the fitted curve.

SMILES	max response [1]	AC50 [2]	AC50 [3]	max response [4]
Cc1ccc(C(=O)c2ccc(CC(=O)O)n2C)cc1	30.4%	11.2 µM [rising, partial curve]	31.6 µM [rising, partial curve]	51.2%
CC(C)[C@H](CO)Nc1nc(Nc2cccc(Cl)c2)c2ncn(C(C)C)c2n1	27.2%	1.26 µM [rising, full curve, poor fit]	0.794 µM [rising, full curve, poor fit]	-59.9%
c1ccc2c(c1)[I+]c1ccccc1-2	50.4% and -46%	70.8 nM [rising, full curve, poor fit] and 708 nM [falling, full curve]		-92.5% and -111%
CCCN1CCO[C@@H]2c3cc(O)ccc3OC[C@H]21	-9.03% and 7.52%	22.4 µM [falling, single point]	22.4 µM [falling, single point]	-6.32% and 9.32%
CCCOc1ccc2[nH]cc(C3=CCNCC3)c2n1	101%	14.1 µM [rising, partial curve]	14.1 µM [rising, partial curve]	135%
CC(C)CCCC1(C)C=Cc2c(O)c3c(c(CCC(C)C)c2O1)OC12C(CC4CC1C(C)(C)OC2(CCC(C)C(=O)O)C4O)C3=O (stereo unspecified)	-7.14%		22.4 µM [falling, single point]	-60.7%
O=C(Nc1cccc(F)c1)N1CCCC2(CCN(C(=O)Oc3ccccc3)CC2)C1	5.53%		1.58 µM [rising, full curve]	11.7%
COC[C@H]1OC(=O)c2coc3c2[C@@]1(C)C1=C(C3=O)[C@H]2CCC(=O)[C@@]2(C)C[C@H]1OC(C)=O	40.8%	10 µM [rising, partial curve, poor fit]		29%
C[Se]C[C@H](N)C(=O)O	24.1%		2.82 µM [falling, full curve, poor fit]	20.9%
COc1cc2c(cc1OC)-c1c(O)c(OC)cc3c1[C@H](C2)N(C)CC3	77%	14.1 µM [rising, partial curve]	17.8 µM [rising, partial curve, poor fit]	97.8%
CN1CC[C@@]2(c3cccc(O)c3)Cc3nc4ccccc4cc3C[C@H]2C1	6.58%	0.002 µM [falling, full curve, poor fit]		7.28%
CNC(C)C1CC[C@H](N)[C@@H](OC2C(N)C[C@H](N)[C@@H](OC3OC[C@](C)(O)C(NC)[C@H]3O)C2O)O1 (stereo partly specified)	25.7%		39.8 µM [rising, single point]	39.1%
